Test results reported in publication PMC12820563.
The list shows a part of the results. The list includes weakly bound sequences.

target: T1, MBP-FoxP3dN (UniProt Q99JB6); experiment: PD-seq (MBP pull-down with sequencing); settings: 20 mM Tris-HCl pH 7.5, 100 mM NaCl, 1.5 mM MgCl2, 0.4 uM protein, 0.1 uM dsDNA library, 30 min, room temperature, amylose pull-down; high values mean tight binding; double strand, one strand shown
T1 sequence: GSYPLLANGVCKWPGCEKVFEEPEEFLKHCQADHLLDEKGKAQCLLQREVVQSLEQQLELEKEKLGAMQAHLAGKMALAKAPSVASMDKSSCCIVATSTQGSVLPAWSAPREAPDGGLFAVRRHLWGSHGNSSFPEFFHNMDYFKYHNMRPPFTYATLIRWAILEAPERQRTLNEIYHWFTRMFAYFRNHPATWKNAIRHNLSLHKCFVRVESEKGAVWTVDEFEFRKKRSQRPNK

Row | Sequence | binding signal (RPM ratio (pull-down/input))
1 | GATGATTGTTCTCCCAGCTGATGAATTAAAACGGTCGAGTAAACAAATTTTCCTAATCTTTCTGTTCAAGCGCCATCTAC | 0.243
2 | GATGATTGTTCTCCCAGCTGATGAATTCTGTTGCTCGAGTAAACAAATTTTCCTAATCTTTCTGTTCAAGCGCCATCTAC | 3.78
3 | GATGATTGTTCTCCCAGCTGATGAATTGCGCTTGTCGAGTAAACAAATTTTCCTAATCTTTCTGTTCAAGCGCCATCTAC | 4.45
4 | GATGATTGTTCTCCCAGCTGATGAATTCCGGTTGTCGAGTAAACAAATTTTCCTAATCTTTCTGTTCAAGCGCCATCTAC | 1.05
5 | GATGATTGTTCTCCCAGCTGATGAATTGGACCTCTCGAGTAAACAAATTTTCCTAATCTTTCTGTTCAAGCGCCATCTAC | 0.349
6 | GATGATTGTTCTCCCAGCTGATGAATTAGCAGGATCGAGTAAACAAATTTTCCTAATCTTTCTGTTCAAGCGCCATCTAC | 0.262
7 | GATGATTGTTCTCCCAGCTGATGAATTGATATTTTCGAGTAAACAAATTTTCCTAATCTTTCTGTTCAAGCGCCATCTAC | 0.879
8 | GATGATTGTTCTCCCAGCTGATGAATTATCTCTATCGAGTAAACAAATTTTCCTAATCTTTCTGTTCAAGCGCCATCTAC | 0.348
9 | GATGATTGTTCTCCCAGCTGATGAATTGTCAGAGTCGAGTAAACAAATTTTCCTAATCTTTCTGTTCAAGCGCCATCTAC | 0.234
10 | GATGATTGTTCTCCCAGCTGATGAATTGTTGTAATCGAGTAAACAAATTTTCCTAATCTTTCTGTTCAAGCGCCATCTAC | 2.72
11 | GATGATTGTTCTCCCAGCTGATGAATTAAACAGTTCGAGTAAACAAATTTTCCTAATCTTTCTGTTCAAGCGCCATCTAC | 0.58
12 | GATGATTGTTCTCCCAGCTGATGAATTCAGATTTTCGAGTAAACAAATTTTCCTAATCTTTCTGTTCAAGCGCCATCTAC | 0.454
13 | GATGATTGTTCTCCCAGCTGATGAATTGCCAAGATCGAGTAAACAAATTTTCCTAATCTTTCTGTTCAAGCGCCATCTAC | 0.4
14 | GATGATTGTTCTCCCAGCTGATGAATTCTCTTACTCGAGTAAACAAATTTTCCTAATCTTTCTGTTCAAGCGCCATCTAC | 0.303
15 | GATGATTGTTCTCCCAGCTGATGAATTCAAGGTGTCGAGTAAACAAATTTTCCTAATCTTTCTGTTCAAGCGCCATCTAC | 0.471
16 | GATGATTGTTCTCCCAGCTGATGAATTGCTACCCTCGAGTAAACAAATTTTCCTAATCTTTCTGTTCAAGCGCCATCTAC | 0.591
17 | GATGATTGTTCTCCCAGCTGATGAATTGCCTAGCTCGAGTAAACAAATTTTCCTAATCTTTCTGTTCAAGCGCCATCTAC | 0.397
18 | GATGATTGTTCTCCCAGCTGATGAATTTCAACTTTCGAGTAAACAAATTTTCCTAATCTTTCTGTTCAAGCGCCATCTAC | 0.463
19 | GATGATTGTTCTCCCAGCTGATGAATTTGCTGGGTCGAGTAAACAAATTTTCCTAATCTTTCTGTTCAAGCGCCATCTAC | 3.21
20 | GATGATTGTTCTCCCAGCTGATGAATTCCTTCGGTCGAGTAAACAAATTTTCCTAATCTTTCTGTTCAAGCGCCATCTAC | 0.174
21 | GATGATTGTTCTCCCAGCTGATGAATTTTAAACGTCGAGTAAACAAATTTTCCTAATCTTTCTGTTCAAGCGCCATCTAC | 0.285

Row | Sequence | binding signal (RPM ratio (pull-down/input))
22 | GATGATTGTTCTCCCAGCTGATGAATTTTGAAAATCGAGTAAACAAATTTTCCTAATCTTTCTGTTCAAGCGCCATCTAC | 0.267
23 | GATGATTGTTCTCCCAGCTGATGAATTCATTTGATCGAGTAAACAAATTTTCCTAATCTTTCTGTTCAAGCGCCATCTAC | 0.502
24 | GATGATTGTTCTCCCAGCTGATGAATTTACGGATTCGAGTAAACAAATTTTCCTAATCTTTCTGTTCAAGCGCCATCTAC | 0.469
25 | GATGATTGTTCTCCCAGCTGATGAATTCTTGGAGTCGAGTAAACAAATTTTCCTAATCTTTCTGTTCAAGCGCCATCTAC | 0.21
26 | GATGATTGTTCTCCCAGCTGATGAATTTTTACCCTCGAGTAAACAAATTTTCCTAATCTTTCTGTTCAAGCGCCATCTAC | 0.202
27 | GATGATTGTTCTCCCAGCTGATGAATTCTCCAGGTCGAGTAAACAAATTTTCCTAATCTTTCTGTTCAAGCGCCATCTAC | 0.162
28 | GATGATTGTTCTCCCAGCTGATGAATTGTGTATATCGAGTAAACAAATTTTCCTAATCTTTCTGTTCAAGCGCCATCTAC | 6.5
29 | GATGATTGTTCTCCCAGCTGATGAATTGTCTGATTCGAGTAAACAAATTTTCCTAATCTTTCTGTTCAAGCGCCATCTAC | 0.434
30 | GATGATTGTTCTCCCAGCTGATGAATTAATCTGTTCGAGTAAACAAATTTTCCTAATCTTTCTGTTCAAGCGCCATCTAC | 0.31
31 | GATGATTGTTCTCCCAGCTGATGAATTGAACCGCTCGAGTAAACAAATTTTCCTAATCTTTCTGTTCAAGCGCCATCTAC | 0.274
32 | GATGATTGTTCTCCCAGCTGATGAATTACCCGCTTCGAGTAAACAAATTTTCCTAATCTTTCTGTTCAAGCGCCATCTAC | 0.31
33 | GATGATTGTTCTCCCAGCTGATGAATTTGAAGCTTCGAGTAAACAAATTTTCCTAATCTTTCTGTTCAAGCGCCATCTAC | 0.387
34 | GATGATTGTTCTCCCAGCTGATGAATTATGTATCTCGAGTAAACAAATTTTCCTAATCTTTCTGTTCAAGCGCCATCTAC | 5.75
35 | GATGATTGTTCTCCCAGCTGATGAATTTGTGATGTCGAGTAAACAAATTTTCCTAATCTTTCTGTTCAAGCGCCATCTAC | 5.62
36 | GATGATTGTTCTCCCAGCTGATGAATTTACAGTGTCGAGTAAACAAATTTTCCTAATCTTTCTGTTCAAGCGCCATCTAC | 0.75
37 | GATGATTGTTCTCCCAGCTGATGAATTCGCTACGTCGAGTAAACAAATTTTCCTAATCTTTCTGTTCAAGCGCCATCTAC | 0.43
38 | GATGATTGTTCTCCCAGCTGATGAATTTTAAGTTTCGAGTAAACAAATTTTCCTAATCTTTCTGTTCAAGCGCCATCTAC | 0.44
39 | GATGATTGTTCTCCCAGCTGATGAATTCGAAGGATCGAGTAAACAAATTTTCCTAATCTTTCTGTTCAAGCGCCATCTAC | 0.213
40 | GATGATTGTTCTCCCAGCTGATGAATTCATACCATCGAGTAAACAAATTTTCCTAATCTTTCTGTTCAAGCGCCATCTAC | 0.563
41 | GATGATTGTTCTCCCAGCTGATGAATTAAAGGCCTCGAGTAAACAAATTTTCCTAATCTTTCTGTTCAAGCGCCATCTAC | 0.548
42 | GATGATTGTTCTCCCAGCTGATGAATTCAGCATCTCGAGTAAACAAATTTTCCTAATCTTTCTGTTCAAGCGCCATCTAC | 6.49

Row | Sequence | binding signal (RPM ratio (pull-down/input))
43 | GATGATTGTTCTCCCAGCTGATGAATTCTATCCGTCGAGTAAACAAATTTTCCTAATCTTTCTGTTCAAGCGCCATCTAC | 0.321
44 | GATGATTGTTCTCCCAGCTGATGAATTATCCGTCTCGAGTAAACAAATTTTCCTAATCTTTCTGTTCAAGCGCCATCTAC | 0.269
45 | GATGATTGTTCTCCCAGCTGATGAATTCATTTATTCGAGTAAACAAATTTTCCTAATCTTTCTGTTCAAGCGCCATCTAC | 2.26
46 | GATGATTGTTCTCCCAGCTGATGAATTTGCGGTGTCGAGTAAACAAATTTTCCTAATCTTTCTGTTCAAGCGCCATCTAC | 2.57
47 | GATGATTGTTCTCCCAGCTGATGAATTGACCAAGTCGAGTAAACAAATTTTCCTAATCTTTCTGTTCAAGCGCCATCTAC | 0.19
48 | GATGATTGTTCTCCCAGCTGATGAATTGCTAGCCTCGAGTAAACAAATTTTCCTAATCTTTCTGTTCAAGCGCCATCTAC | 0.782
49 | GATGATTGTTCTCCCAGCTGATGAATTCCTCAGTTCGAGTAAACAAATTTTCCTAATCTTTCTGTTCAAGCGCCATCTAC | 0.231
50 | GATGATTGTTCTCCCAGCTGATGAATTACGCTTATCGAGTAAACAAATTTTCCTAATCTTTCTGTTCAAGCGCCATCTAC | 1.57
51 | GATGATTGTTCTCCCAGCTGATGAATTCCATTGGTCGAGTAAACAAATTTTCCTAATCTTTCTGTTCAAGCGCCATCTAC | 0.66
52 | GATGATTGTTCTCCCAGCTGATGAATTAATACAGTCGAGTAAACAAATTTTCCTAATCTTTCTGTTCAAGCGCCATCTAC | 0.513
53 | GATGATTGTTCTCCCAGCTGATGAATTTACAGATTCGAGTAAACAAATTTTCCTAATCTTTCTGTTCAAGCGCCATCTAC | 0.415
54 | GATGATTGTTCTCCCAGCTGATGAATTAGCTGATTCGAGTAAACAAATTTTCCTAATCTTTCTGTTCAAGCGCCATCTAC | 1.17
55 | GATGATTGTTCTCCCAGCTGATGAATTGTAGGGCTCGAGTAAACAAATTTTCCTAATCTTTCTGTTCAAGCGCCATCTAC | 0.494
56 | GATGATTGTTCTCCCAGCTGATGAATTGACCGTATCGAGTAAACAAATTTTCCTAATCTTTCTGTTCAAGCGCCATCTAC | 0.445
57 | GATGATTGTTCTCCCAGCTGATGAATTCGGATCGTCGAGTAAACAAATTTTCCTAATCTTTCTGTTCAAGCGCCATCTAC | 0.329
58 | GATGATTGTTCTCCCAGCTGATGAATTGGCTGAATCGAGTAAACAAATTTTCCTAATCTTTCTGTTCAAGCGCCATCTAC | 0.239
59 | GATGATTGTTCTCCCAGCTGATGAATTACCCCCCTCGAGTAAACAAATTTTCCTAATCTTTCTGTTCAAGCGCCATCTAC | 0.297
60 | GATGATTGTTCTCCCAGCTGATGAATTCACGTTATCGAGTAAACAAATTTTCCTAATCTTTCTGTTCAAGCGCCATCTAC | 0.742
61 | GATGATTGTTCTCCCAGCTGATGAATTTAAATCCTCGAGTAAACAAATTTTCCTAATCTTTCTGTTCAAGCGCCATCTAC | 0.377
62 | GATGATTGTTCTCCCAGCTGATGAATTAGTTAGATCGAGTAAACAAATTTTCCTAATCTTTCTGTTCAAGCGCCATCTAC | 0.461
63 | GATGATTGTTCTCCCAGCTGATGAATTTGTGAGATCGAGTAAACAAATTTTCCTAATCTTTCTGTTCAAGCGCCATCTAC | 0.579
